# Experimental data published in PubChem BioAssay AID1345083 (National Center for Advancing Translational Sciences (NCATS), 2018).
# The whole screen tested about 94,000 compounds, of which about 6,200 (6.6%) were called active. This list was built around the results that the source calls inconclusive (neither active nor inactive); the mix of calls is not that of the screen. The call rests on the fitted dose curve; in most records, active means well fitted inhibition curve with a large enough effect; inconclusive means small, poorly fitted or top-dose-only effect; inactive means flat fitted curve, though single readings scatter. Where the call is inconclusive, the potency comes from a doubtful curve fit.
# Assay: Cytotoxic Profiling in HEK 293 Cell Line of Diverse Libraries Using Quantitative High-Throughput Screening; further: nearly all actives have a fitted effect of over 60% in size
# Details: HEK 293 viability, ATP luminescence (CellTiter-Glo), 48-72 h; activity change, negative = cytotoxicity: at 115 µM (top of the series) unless noted; series mostly up to 115 µM
# How it was run: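 Pintool-delivered compounds were incubated with HEK 293 cells (250 cells/well) at 37 degree Celsius for 48 or 72 hr. ATP-dependent luminescence (CellTiter-Glo) then reported remaining viable cells.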
# On the % scale 0 is the no-effect control and ±100 the full control effect; potency means the concentration at half of the fitted maximal effect; tags describe the fitted curve by direction and shape.
SMILES,"activity change, negative = cytotoxicity",Potency,outcome
O=C(c1ccc(N2CC3CC(C2)[C@H]2CCCC(=O)N2C3)nc1)N1CCN(C2CCCCC2)CC1 (stereo partly drawn),inactive: -7.92%,,
c1ccc(CCCc2noc(-c3ccc(NCc4ccccn4)nc3)n2)cc1,,"inconclusive: 35.5 µM [inhibitor, full curve]",
Cc1cc(C)n(Cc2cc(C(=O)N(C)C(C)c3ccon3)n[nH]2)n1 (stereo not drawn),inactive: 3.34%,,
CC(C)CC(=O)N1C[C@@H](Oc2ccccc2)C[C@H]1C(=O)N1CCCC1,,,inactive
COc1ccc(Cl)cc1NC(=O)N1CC(c2noc(-c3ccncc3)n2)C1,,"inconclusive: 70.8 µM [inhibitor, single point]",
CC(C)Oc1cccc2c1c(NC(=O)C1CCCO1)nn2Cc1ccccc1 (stereo not drawn),,active: 44.7 µM,
COc1ccc(-c2cc(N3CCN(C(=O)c4cc5ccccc5[nH]4)CC3)n[nH]2)cc1,,active: 28.2 µM,
CN(Cc1nc2c(s1)CCCC2)C(=O)CN1C(=O)CSc2ccccc21,,"inconclusive: 89.1 µM [inhibitor, single point]",
N#Cc1cccc(NC(=O)Cn2cccc2-c2nc(-c3ccccc3)no2)c1,inactive: -1.59%,,
CCCCCC(=O)N[C@H]1C[C@@H](Cc2cc(CN3CCOCC3)on2)C1(C)C,,"inconclusive: 8.91 µM [inhibitor, full curve, poor fit]",
Cc1ccc(C2=NC3(CCN(C(=O)c4ccccc4C)CC3)ON2)cc1,,"inconclusive: 50.1 µM [inhibitor, partial curve]",
c1ccc(-c2ccnc3nc(CCC4CCCC4)nn23)nc1,,"inconclusive: 50.1 µM [inhibitor, partial curve, poor fit]",
CCOC(=O)[C@@H]1CN(C(=O)OC)[C@H]2c3ccc(OC)cc3O[C@@H]12,,"inconclusive: 89.1 µM [inhibitor, single point]",
COc1cccc(CCC(=O)N2[C@@H]3CC[C@H]2CC(NC(=O)c2ccc(F)cc2)C3)c1 (stereo partly drawn),inactive: -7.53%,,
COC(=O)[C@@H]1Cc2c([nH]c3ccccc23)[C@H]2C[C@@H](NCCN3CCOCC3)C[C@@H](c3ccccc3)N21,,"inconclusive: 22.4 µM [inhibitor, full curve, poor fit]",
COCCOc1cc(C)c2c(c1C)C[C@H]([C@H](C)C(=O)NC1CCCC1)CC2,,"inconclusive: 89.1 µM [inhibitor, partial curve, poor fit]",
Cc1ccccc1NC(=O)CCNc1c(-c2ccc(F)cc2)nc2cnccn12,inactive: -24.5%,,
Cc1ccc(S(=O)(=O)N2C[C@@H]3OCC(=O)N(Cc4ccc(F)cc4)[C@@H]3C2)cc1,,"inconclusive: 112 µM [inhibitor, single point]",
Cc1nn(-c2ccccc2)c2c1C(C(C)C)N(C1CCCN(C(=O)c3ccc(F)cc3)C1)C2=O (stereo not drawn),,active: 28.2 µM,
CNC(=O)c1cccc(-c2cnc3[nH]cc(CC(=O)Nc4ccccc4C)c3c2)c1,,"inconclusive: 100 µM [inhibitor, partial curve]",
CCO[C@H]1CN(C(=O)CN(c2cccc(C)c2)S(C)(=O)=O)C[C@@H]1O,,,inactive
COc1ccc(-c2nnc3n2CCN(C(=O)Nc2ccccc2)C3)cc1,inactive: -2.91%,,

SMILES,"activity change, negative = cytotoxicity",Potency,outcome
O=C(NCc1ccc(C(F)(F)F)cc1)C1CCN(C(=O)c2ccc(-c3cncnc3)cc2)CC1,,"inconclusive: 44.7 µM [inhibitor, partial curve, poor fit]",
COC(=O)CNC(=O)C1CCN(Cc2ccccc2-c2cccnc2)CC1,inactive: 1.43%,,
O=C1CCC(C(=O)N2CC(c3ncc4c(-c5ccc(F)cc5)nccn34)C2)N1 (stereo not drawn),,"inconclusive: 35.5 µM [inhibitor, partial curve, poor fit]",
COc1ccccc1NC(=O)NC[C@H]1O[C@H](Cc2cc(C(C)(C)C)on2)CC[C@@H]1O,,"inconclusive: 100 µM [inhibitor, partial curve, poor fit]",
COc1ccc(-c2cccc(C(=O)NCc3ccccc3F)c2)nn1,,"inconclusive: 56.2 µM [inhibitor, partial curve, poor fit]",
O=C(NC1CCCCC1)N1CCn2c(nnc2C2CCCN2)C1 (stereo not drawn),inactive: -27.5%,,
Cc1noc(C)c1CNC(=O)c1cc2c(s1)CCN(C(=O)c1ccc(Cl)cc1)C2,,"inconclusive: 50.1 µM [inhibitor, partial curve, poor fit]",
CN1C(=O)C2(CCN(C(=O)c3cccc(Br)c3)C2)c2ccccc21 (stereo not drawn),,active: 35.5 µM,
Cc1cc(NC(=O)c2ccc3c(c2)N(C)C2CCCCCN2C3=O)ccc1Cl (stereo not drawn),,"inconclusive: 39.8 µM [inhibitor, partial curve, poor fit]",
O=C(c1cc(Cl)ccc1F)N1CCN(C(=O)c2nnn3c2COC(c2ccccc2)C3)CC1 (stereo not drawn),,"inconclusive: 44.7 µM [inhibitor, partial curve, poor fit]",
Cc1cc(N2CCCN(c3ccncc3)CC2)n2nc(C)c(C)c2n1,inactive: -24.3%,,
COc1cccc(C(=O)N2CC[C@@H]3CN(S(C)(=O)=O)[C@@H]3C2)c1C,inactive: 4.37%,,
Cn1ncc2c(C(=O)NCCc3ccc(F)cc3)cc(-c3ccccc3F)nc21,,"inconclusive: 17.8 µM [inhibitor, full curve]",
O=C(NC1CCN(C(=O)c2ccc(-c3cccs3)cc2)CC1)c1ccccc1Cl,,"inconclusive: 50.1 µM [inhibitor, partial curve, poor fit]",
O=C(NCc1ccc(F)c(F)c1)c1ccc2nnc(-c3ccoc3)n2c1,inactive: -12.9%,,
c1ccc(-c2nnc3ccc(NC4CC4)nn23)nc1,inactive: -17.4% [at 230 µM],,
O=C(c1nc2c(o1)CCN(Cc1cccc(Cl)c1)CC2)N1CCOCC1,,"inconclusive: 79.4 µM [inhibitor, partial curve, poor fit]",
COc1ccc(-c2noc(CC3CCN(C(=O)COc4ccc(C)cc4)CC3)n2)cc1,,"inconclusive: 31.6 µM [inhibitor, partial curve, poor fit]",
CS(=O)(=O)N1C[C@H]2CCN(Cc3cccc(F)c3F)C[C@H]21,inactive: -3.41%,,
O=C(CC[C@H]1NC(=O)c2ccccc2NC1=O)Nc1ncn[nH]1,,,inactive
CNC(=O)CCn1ncc2cc(OCc3ccccc3-c3cnn(C)c3)ccc21,,"inconclusive: 89.1 µM [inhibitor, partial curve, poor fit]",
